Some of these densities may be calculated back from excess volumes.
Assay: xn = mol fraction of the nth substance listed
Details: 101 kPa

CCCCCCCCCC[n+]1ccn(C)c1.O=S(=O)([N-]S(=O)(=O)C(F)(F)F)C(F)(F)F + CCCCO
mass density [kg/m3]
Details	303.15 K	313.15 K	323.15 K	333.15 K
x2 = 0.197	–	–	–	1222.7
x2 = 0.402	1209.6	–	1192.4	1183.8
x2 = 0.602	1152	1142.1	–	1120.5
x2 = 0.801	1048.9	1040.2	1031.2	–

CCCCCCCCCC[N+]1(C)CCOCC1.O=S(=O)([N-]S(=O)(=O)C(F)(F)F)C(F)(F)F + CCCCO
mass density [kg/m3]
Details	303.15 K	313.15 K	323.15 K	333.15 K
x2 = 0.21	–	1244.1	1235	1223.8
x2 = 0.405	1216	1207.7	–	1192
x2 = 0.603	–	1149.7	–	1133.1
x2 = 0.8	1063.6	1055.1	–	1036
